Experimental data: PubChem BioAssay AID1508642 (National Center for Advancing Translational Sciences (NCATS), 2021)
The campaign covered roughly 43,000 compounds. About 200 (0.47%) were called active. About 12% were inconclusive and are not listed. Calls follow the shape of the dose curve; as a rule, active = well fitted cell-killing curve with a large enough effect; inconclusive = small, poorly fitted or top-dose-only effect, or effect the other way; inactive = flat fitted curve, though single readings scatter. This is one part of the list.

Test: Cell viability qHTS assay in S16 Pmp22-F2sN cells; also: nearly all actives have a fitted effect of over 65% in size
Settings: S16 Pmp22-F2sN Schwann cells (luciferase reporters placed in the Pmp22 gene) viability, CellTiter-Glo, 24 h; series mostly up to 57.5 µM; activity change, negative = cytotoxicity: at the top concentration
Outline: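 Seed 500-1,000 S16 Pmp22-F2sN cells per well in phenol-red-free DMEM with 10% heat-inactivated FBS; pin-add 23 nL compound; incubate 24 h at 37C; add CellTiter-Glo, wait 15 min protected from light; read luminescence.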
% is scaled to controls: 0 for no effect and ±100 for the full control effect.

Row | Structure (SMILES) | activity change, negative = cytotoxicity
1 | CCOC(=O)c1ccc(NS(=O)(=O)c2ccc3[nH]c4c(c3c2)CCCCC4)cc1 | inactive: -1.59%
2 | Cc1oc(-c2ccc(C(=O)Nc3ccccc3F)cc2)nc1COc1ccccc1 | inactive: 2.86%
3 | CCOc1ccccc1NC(=O)Cn1c2ncccc2c(=O)n1-c1ccc(C)c(C)c1 | inactive: 5.55%
4 | CCc1ccc2nc(N3CCN(C(=O)C4CC4)CC3)sc2c1 | inactive: -1.12%
5 | CC(=O)N1CCCc2cc(S(=O)(=O)Nc3ccc(C)c(F)c3)ccc21 | inactive: -2.06%
6 | Cc1oc2c(c(C)cc3oc(=O)c(CC(=O)NCc4ccc(F)cc4)c(C)c32)c1C | inactive: 13.3%
7 | Cc1cccc(C)c1NC(=O)CN1C(=O)c2cccc3cccc1c23 | inactive: 2.23%
8 | CCOc1ccc(NC(=O)CN2C(=O)C3(SCC(=O)N3c3ccc(F)cc3)c3ccccc32)cc1 (stereo unspecified) | inactive: -3.65%
9 | CCC12CN3CC(CC)(CN(C1)C3c1cc(Br)ccc1OC)C2=O (stereo unspecified) | inactive: 1.76%
10 | CCn1cc(C(=O)NCc2ccc(C)cc2)c(=O)c2cc(S(=O)(=O)N3CCc4ccccc4C3)ccc21 | inactive: -0.389%
11 | Cc1nc(-c2ccc(S(=O)(=O)N3CCN(c4ccc(F)cc4)CC3)cc2)co1 | inactive: -20.6%
12 | Cc1ccc(-n2nc3c(=O)n(CCCC(=O)NCc4ccccc4F)nc(C)c3c2C)cc1 | inactive: 1.83%
13 | Cc1csc2nc(COC(=O)CNC(=O)c3ccccc3Cl)cc(=O)n12 | inactive: 13.5%
14 | O=C(CSc1nc2ccncc2[nH]1)Nc1ccccc1C(F)(F)F | inactive: -1.17%
15 | O=C(Nc1c(C(=O)N2CCN(c3ccccc3F)CC2)oc2ccccc12)c1ccccc1F | inactive: -0.747%
16 | O=C(CN1CCCN(Cc2ccc(F)cc2)S1(=O)=O)NCc1ccccc1Cl | inactive: -2.26%
17 | CN1CCN(CCCNC(=O)c2ccc3nc(Cc4ccccc4)oc3c2)CC1 | inactive: 4.43%
18 | COc1ccccc1-c1nnc(C2CCN(C(=O)c3ccc(Cl)cc3)CC2)o1 | inactive: 4.51%
19 | Cc1ccc(Cn2c(CNC(=O)c3cccc(C)c3)nc3ccccc32)cc1 | inactive: 3.81%
20 | COc1cccc2c1Oc1ncccc1N(C(=O)CCC(=O)NCc1ccc(C)cc1)C2 | inactive: -6.85%
21 | CCc1ccc(N(C)S(=O)(=O)c2ccc3[nH]cc(C(=O)NCC4CCCO4)c(=O)c3c2)cc1 (stereo unspecified) | inactive: -25.9%

Row | Structure (SMILES) | activity change, negative = cytotoxicity
22 | N#Cc1ccccc1NC(=O)c1cnc(N2CCOCC2)c2ccccc12 | inactive: 24.5%
23 | CCC(=O)N1CCc2cc(Br)cc(S(=O)(=O)CCC(=O)NCc3ccc(F)cc3)c21 | inactive: 5.68%
24 | CC(=O)N1CCOc2cc(S(=O)(=O)N(C)Cc3ccccc3)c(Cl)cc21 | inactive: 13.8%
25 | CCCN1CCc2nc(N3CCN(c4ncccn4)CC3)ncc2C1 | inactive: -2.77%
26 | Cc1cccc(OCCCn2c(CCNC(=O)C(C)(C)C)nc3ccccc32)c1 | inactive: -23.1%
27 | Cc1ccc(C)c(CN2C(=O)c3ccccc3S(=O)(=O)c3ccc(C(=O)NCc4ccccc4)cc32)c1 | inactive: -5.48%
28 | Cc1c(C(=O)NCc2ccccc2Cl)sc2nc[nH]c(=O)c12 | inactive: -2.87%
29 | COc1ccc(CN(Cc2ccco2)c2cnc(S(C)(=O)=O)nc2C(=O)Nc2ccc(C)cc2C)cc1 | inactive: -7.51%
30 | CCOCCCNC(=O)C(=O)Nc1c2c(nn1-c1ccc(OC)cc1)CSC2 | inactive: 1.36%
31 | Cc1ccc2c(=O)c(C(=O)c3ccc(F)cc3)cn(CC(=O)NCCc3ccccc3)c2n1 | inactive: -13%
32 | CCOc1ccc(C(=O)Nc2ccc3oc(-c4cccnc4)nc3c2)cc1 | inactive: 2.88%
33 | CCN(CC)CCSc1nnc2c3cc(F)ccc3n(C)c2n1 | inactive: 19.9%
34 | Cc1cc(C)cc(NC(=O)CSc2nnc(-c3cc4occc4n3C)n2-c2ccccc2C)c1 | inactive: 10.5%
35 | O=S(=O)(NCCc1csc2nc(-c3ccccc3)nn12)c1ccc(Cl)s1 | inactive: 5.05%
36 | COc1ccc2c(CNC3CCCCCC3)c(C(=O)O)n(Cc3cccc(F)c3)c2c1 | inactive: -6.24%
37 | COc1ccc(-c2noc(CNS(=O)(=O)c3ccc(Br)cc3)n2)cc1OC | inactive: -7.66%
38 | Cc1ccc(-c2noc(CN(C(=O)COc3cc(C)cc(C)c3C)C(C)C)n2)cc1 | inactive: -16.1%
39 | COC(=O)c1ccc(OC)c(CN2C(=O)N(c3ccc(C(C)=O)cc3)S(=O)(=O)c3ccccc32)c1 | inactive: -2.68%
40 | CCOC(=O)c1c(C)[nH]c(CCC(=O)Nc2ccc(Cl)cc2C)c1C | inactive: -10.3%
41 | Cc1ccc(CNCc2c(C(=O)O)n(Cc3ccc(C)cc3)c3cc(C)ccc23)cc1 | inactive: -5.86%
42 | O=C(C1CCC(Cn2c(=O)c3sccc3n(Cc3ccccc3F)c2=O)CC1)N1CCCCC1 (stereo unspecified) | inactive: -7.25%

Row | Structure (SMILES) | activity change, negative = cytotoxicity
43 | COc1ccccc1N(CC(=O)NCCSCc1cccc(Cl)c1)S(C)(=O)=O | inactive: 12.1%
44 | Cn1c(=O)c2c(c3ccccc31)OC(=O)CC2c1cccc(F)c1 (stereo unspecified) | inactive: -3.43%
45 | O=C(Nc1ccc(Cl)cc1)N1CCN(c2ccc3nnc(-c4ccccc4)n3n2)CC1 | inactive: -7.89%
46 | CCOc1ccc(NC(=O)c2cc3c(=O)n(Cc4cccs4)ccc3nc2C)cc1 | inactive: 7.81%
47 | Cc1cc(C)c(NC(=O)c2ncoc2-c2ccco2)c(C)c1 | inactive: -7.53%
48 | CCCCNC(=O)C1CCN(S(=O)(=O)c2ccc3c(ccn3CC)c2)CC1 | inactive: 0.841%
49 | COc1cccc(Nc2nc3cc(Cl)c(Cl)cc3nc2-n2nc(C)cc2C)c1 | inactive: -2.93%
50 | COc1ccc(NC(=O)Cn2nc(C)c3nn(-c4ccc(Cl)cc4)c(C)c3c2=O)cc1 | inactive: -14.2%
51 | CCOC(=O)Cn1c(=O)oc2cc(S(=O)(=O)N3CCN(c4ccc(C(C)=O)cc4)CC3)ccc21 | inactive: 0.9%
52 | CCOc1ccc(S(=O)(=O)c2cn(Cc3cc(C)ccc3C)c3ccc(OCC)cc3c2=O)cc1 | inactive: -5.32%
53 | CCOc1ccc(-c2nc(Cn3c(=O)cc(C)c4c(C)nn(-c5ccc(C)cc5)c43)c(C)o2)cc1 | inactive: 2.29%
54 | COc1ccccc1NC(=O)C1=C(C)Nc2nc(SCc3ccccc3)nn2C1c1cccnc1 (stereo unspecified) | inactive: 5.39%
55 | O=C(Nc1ccccc1)C1CCN(S(=O)(=O)c2ccc3[nH]c4c(c3c2)CCCCC4)CC1 | inactive: -16%
56 | COc1ccc(CCNC(=O)CCn2c(=O)c3ccccc3n(CC(=O)Nc3ccc(C)cc3C)c2=O)cc1OC | inactive: -8.93%
57 | CCCOC(=O)c1ccc(Cn2nnc3sc4c(c3c2=O)CCC(C)C4)cc1 (stereo unspecified) | inactive: 9.35%
58 | CCOc1ccc(NC(=O)c2cc(S(=O)(=O)N3CCOCC3)ccc2F)cc1 | inactive: -0.866%
59 | COc1ccccc1CNC(=O)c1cnc(N2CCCC2)nc1C | inactive: 3.96%
60 | COc1ccc(-c2cn3nc(SCC(=O)Nc4ccc(C)c(Cl)c4)ccc3n2)cc1 | inactive: 6.5%
61 | Cc1ccc(NC(c2ccc(Cl)cc2)c2nnc(-c3cccc(F)c3)o2)cc1C (stereo unspecified) | inactive: 0.845%
